Results as given in ChEMBL document CHEMBL4888484, “Replenishing the malaria drug discovery pipeline: Screening and hit evaluation of the MMV Hit Generation Library 1 (HGL1) against asexual blood stage Plasmodium falciparum ,using a nano luciferase reporter read-out” (2022).
Among all 150,000 compounds or so, about 540 (0.36%) showed an effect of 50% or more. The list shows a part of the results.

System: Plasmodium falciparum
Assay: Primary screen in NF54 nanoGlo assay, in single point, at 2uM, 72h; a lower Z score goes with more inhibition
Format: functional, Erythrocyte
Settings: timepoint 72 hour

Row | SMILES | % Inhibition | Z score
1 | CCC(F)(F)CN1CCc2occc2[C@@H]1C(=O)O | -6% | 0.88
2 | O=C(CCCn1cncn1)Nc1c(O)c(Cl)cc(Cl)c1Cl | -2% | 0.2
3 | COc1ccc2c(c1)CCCN([C@H]1CCN(CC(F)(F)F)C1=O)C2 | -8% | 1.65
4 | CC(CCCC(C)(C)O)NC(C)CCc1ccccc1 (stereo not drawn) | -10% | 1.31
5 | Cc1noc(-c2cccc(C(F)(F)F)c2)c1C(=O)NCc1cccc(F)c1F | -16% | 1.78
6 | CC(C)c1noc(C(C)N2Cc3ccccc3C(c3ccccc3)C2)n1 (stereo not drawn) | 2% | -0.27
7 | COc1ccc(NC(=O)C2CCC(CNS(=O)(=O)c3ccc4c(c3)C(C)(C)C(=O)N4C)CC2)cc1 (stereo not drawn) | -9% | 0.87
8 | Cc1nnc(N2CCC[C@H](CN3CCOCC3)C2)s1 | 2% | -0.25
9 | O=C1N[C@H]2C[C@@H](C(=O)NC[C@H]3O[C@H](CCOc4ccccc41)CC[C@@H]3O)N(Cc1ccc3c(c1)OCO3)C2 | 26% | -2.92
10 | CC(=O)N(CC(=O)Nc1ccc(N2CCN(C(=O)Nc3cccc(C(F)(F)F)c3)CC2)cc1)Cc1ccccc1 | -16% | 2.28
11 | COCCn1c(CO)nnc1[C@H]1C[C@@H](NC(=O)c2cccc(O)c2C)C1 | -9% | 1.61
12 | CC1CN(c2cc(N(C)C)ncn2)CC(C)O1 (stereo not drawn) | -12% | 1.6
13 | Cn1c(=O)[nH]c2ncc(-c3cccc(C(=O)NC[C@H]4Cc5ccccc5O4)c3)cc21 | -3% | 0.29
14 | COc1nn(C)cc1C(=O)Nc1ccon1 | -4% | 0.49
15 | CC(CC(=O)c1ccc(F)cc1)NC(=O)C1C2C3CCC(C3)C12 (stereo not drawn) | -5% | 0.56
16 | Cn1cnc2c(C(=O)N3CCCCC3)nn(-c3ccccc3)c2c1=O | -21% | 1.96
17 | CCc1nn(-c2cccc(C)c2)c(N2CCN(C)CC2)c1CN(Cc1ccc(C)cc1)C(C)C | -6% | 0.9
18 | Cc1ccc(CNC(=O)C[C@H]2CCCCN(C)C2=O)cc1 | -13% | 2.53
19 | CN(Cc1ccsc1)C(=O)[C@@H]1CCCO1 | -12% | 1.74
20 | Cc1noc(C)c1CS(=O)(=O)C[C@H](O)c1ccc(F)cc1 | -5% | 0.73
21 | O=C(c1cccc(-n2cccn2)n1)N1CCC(Cc2ccccc2)CC1 | 1% | -0.24
22 | CN(C)c1noc(CN(Cc2ccc(F)cc2F)C2CC2)n1 | 6% | -0.66
23 | Cc1cc(C(=O)N2CCC([C@H]3[C@@H](Oc4ccccc4)CN3C(C)C)CC2)nn1C | -11% | 1.32
24 | COCCn1cnc2cc(NC(=O)C3CCCCC3)cc(C(=O)N(C)[C@@H](C)c3nc(C)cs3)c21 | -13% | 1.67
25 | O=C(NCc1ccccc1)NC[C@H]1Cn2ccnc2CO1 | 29% | -3.24
26 | CCN(CC)C(=O)[C@@H]1C[C@@H](n2cc(C3CCCCC3)nn2)CN1 | -23% | 2.44
27 | COCc1nc(N(C)CCn2cccn2)c2c(-c3ccccc3)csc2n1 | -1% | 0.15

Row | SMILES | % Inhibition | Z score
28 | CCCc1nc(NC(=O)N[C@@H](C)Cn2cncn2)sc1CC | 4% | -0.54
29 | O=C(c1ccncc1)N1N=CC[C@]1(O)C(F)(F)F | -2% | 0.43
30 | N#Cc1cc(Br)cc(F)c1N | -8% | 0.98
31 | CCN1C(=O)Cc2cc(NC(=O)COc3ccccc3C)ccc21 | -2% | 0.37
32 | CCN(CC)Cc1cccc(NC(=O)c2ccc3c(c2)NC(=O)CN3C)c1 | -10% | 1.97
33 | Cc1noc(C2CCN([C@@H](C)CCc3ccccc3)CC2)n1 | -8% | 1.09
34 | O=C(c1ccc(Cl)cc1OC1CCN(C[C@H]2CCOC2)CC1)N1CCCCC1 | -7% | 1.01
35 | C[C@H]1Cc2cc(NC(=O)CCN3CCN(C)CC3)ccc2O1 | 0% | 0.02
36 | CCn1cc(S(=O)(=O)NCc2noc(C(C)C)n2)c(C)n1 | 1% | -0.16
37 | O=C(Cc1ccc(Cl)c(Cl)c1)Nc1ccc(-n2cncn2)cn1 | 0% | 0.04
38 | CCc1ncc(-c2nc(CC3CCN(C)CC3)nn2CC(F)(F)F)cn1 | 9% | -1.53
39 | O=C(NCc1ccco1)c1ccc(Oc2ccccc2)cc1 | -5% | 0.88
40 | Cn1ccc(-c2nnc(NC(=O)COc3ccccc3)o2)n1 | -12% | 1.94
41 | CCCOc1ccc(Br)cc1S(=O)(=O)N[C@@H](C)CC | -2% | 0.21
42 | CCC(CC)(CNC[C@@H]1CC=CCC1)S(C)(=O)=O | -6% | 0.6
43 | O=C1CCC2(CCN(C3Cc4ccccc4C3)CC2)CN1CCc1ccncc1 | -7% | 1.41
44 | O=C(O)C[C@H]1COCCN1Cc1ccc(-c2cccc(Cl)c2Cl)o1 | 2% | -0.2
45 | C[C@H](NS(=O)(=O)c1ccc2[nH]c(=O)n(C)c(=O)c2c1)c1nncn1C | -21% | 2.75
46 | CCc1nc(CNC(=O)N2CCC[C@H](c3nc4ccccc4n3C)C2)no1 | -3% | 0.66
47 | CC(C)N1Cc2cc(C(=O)NC3CCCCCC3)sc2C1 | 6% | -1.09
48 | COc1ccccc1OCc1n[nH]c(Cc2c(C)noc2C)n1 | -1% | 0.14
49 | CS(=O)(=O)N1CC[C@H](S(=O)(=O)c2ccccc2)C1 | -8% | 1.29
50 | C[C@H]1CN(S(=O)(=O)c2ccc3c(c2)CCO3)CCO1 | -14% | 1.27
51 | C[C@H](Nc1cnn(C)c1)C(=O)NCCC1=CCCCC1 | -1% | 0.17
52 | O=C(c1ccco1)N1CCC(n2cc(C3CCCC3)nn2)CC1 | -5% | 0.98
53 | CC(NC(=O)OC(C)(C)C)C(O)c1ccc(F)c(F)c1 (stereo not drawn) | -7% | 0.97
54 | Cc1cc(NC(=O)N2CCN[C@@H]3CS(=O)(=O)C[C@@H]32)n(C2CCCCC2)n1 | 1% | -0.23
